Experimental findings from ChEMBL document CHEMBL4888484, “Replenishing the malaria drug discovery pipeline: Screening and hit evaluation of the MMV Hit Generation Library 1 (HGL1) against asexual blood stage Plasmodium falciparum ,using a nano luciferase reporter read-out” (2022) are described below.

The campaign covered roughly 150,000 compounds. About 540 (0.36%) showed an effect of 50% or more. Some of the results follow.

For this experiment, the system named is Plasmodium falciparum. Briefly: Primary screen in NF54 nanoGlo assay, in single point, at 2uM, 72h; a lower Z score goes with more inhibition. It is filed as functional, Erythrocyte. Conditions: timepoint 72 hour.
Broadly, the % Inhibition is the relative decrease from the control value, in per cent. For `CC(C)C(=O)Nc1ccc2c(c1)C(=O)Nc1cccnc1O2`, the “% Inhibition” value was -9% and the Z score was determined as 1.

For `CCc1cc(NC(=O)c2ccc(-c3ccccc3F)o2)n(C)n1`, the “% Inhibition” value is reported as -10% and the Z score was 1.

For the molecule `O=C(NCc1cccc(F)c1)c1ccc(CN2C(=O)CCn3nc(-c4ccc(Cl)cc4)cc32)cc1`, the “% Inhibition” value is on record as 5% and the Z score is -0.63.

For `CC1(CO)CN(Cc2ccc(OC(F)F)c(Cl)c2)C1`, the “% Inhibition” value is reported as -4% and the Z score is on record as 0.58.

Turning to `Cc1nccnc1N(C)Cc1ccc2c(c1)OCO2`, the “% Inhibition” value is -2% and the Z score is given as 0.42.

As to `CCCN(CC)Cc1ccccc1-c1nc2c(c(=O)[nH]1)CCCCC2`, the “% Inhibition” value came out at 4% and the Z score is reported as -0.66.

Turning to `CCN1CCN(C(=O)c2cccc(NCc3cccnc3)c2C)[C@@H](C)C1=O`, the “% Inhibition” value is reported as -7% and the Z score came out at 1.21.

With `NC(=O)CN1CCC(N[C@@H](CCc2ccccc2)C(F)F)CC1`, the “% Inhibition” value came to 5% and the Z score was -0.59.

For the molecule `CN(C)C(=O)CN1C[C@H](Nc2cccc(C#N)n2)[C@@H](C2CC2)C1`, the “% Inhibition” value amounted to 0% and the Z score is reported as -0.08.

Turning to `N#Cc1cccc(CN2CCC[C@@](CO)(CC3CC3)C2)c1`, the “% Inhibition” value was 5% and the Z score was -0.82.

As to `O=C(Nc1ccc(C(F)(F)F)cc1)C1CCN(C(=O)c2ccc(-c3ccccc3)cc2)CC1`, the “% Inhibition” value is recorded as -17% and the Z score was 2.19.

On to `CCOc1ccnc(-c2ccc(N(C)C)nc2)n1`, for which the “% Inhibition” value worked out at 2% and the Z score is given as -0.16.

As to `NC(=O)C1C2CCCC2CN1c1ncnc2c1ncn2CC1(CO)COC1` (stereo not drawn), the “% Inhibition” value amounted to 2% and the Z score is on record as -0.27.

For the molecule `COc1ccccc1CCC(=O)N1C[C@H]2CCN(C)[C@H]2C1`, the “% Inhibition” value is on record as -11% and the Z score is 1.55.

`Cc1c(CN[C@@H](C)CCc2ccccc2)c(C(=O)O)c(C)n1Cc1cccc(Cl)c1`: the “% Inhibition” value was -4% and the Z score turned out to be 0.78.

With `CCN1CCCCc2cc(C(=O)NCC(N)=O)sc21`, the “% Inhibition” value was determined as 28% and the Z score is recorded as -3.78.

With `Cc1cc(Cl)cc2cc(-c3noc(-c4cn(C[C@H]5CCOC5)nn4)n3)oc12`, the “% Inhibition” value is -17% and the Z score came to 2.12.

With `C[C@H]1CCOCCN1C(=O)c1ocnc1-c1ccccc1`, the “% Inhibition” value turned out to be 3% and the Z score is -0.54.

With `CC(C)[C@@H](C(=O)NCCCN(C)C)S(=O)(=O)C1CCCCC1`, the “% Inhibition” value is on record as -15% and the Z score was determined as 2.81.

Regarding `CCCN1CCN(CCC(=O)Nc2cccnc2)CC1=O`, the “% Inhibition” value is reported as -12% and the Z score came to 1.98.

As to `Cn1cccc1C(=O)N1CCCC[C@H]1c1nnc(-c2cnccn2)[nH]1`, the “% Inhibition” value was found to be 1% and the Z score is on record as -0.1.

As to `C[C@@H](C#N)N1CCC(Cn2cc(Br)cn2)CC1`, the “% Inhibition” value is -8% and the Z score is on record as 1.12.

For `CCn1c(=O)c(-c2ccc3ccccc3n2)cc2cc(Cl)ccc21`, the “% Inhibition” value is on record as 13% and the Z score is -1.78.

For the molecule `Cc1cc(C(=O)NCc2csc(N)n2)cnc1C`, the “% Inhibition” value was -21% and the Z score was found to be 2.28.

In the case of `Cc1oc2ccc(OCc3ccccc3)cc2c1C(=O)N1[C@@H]2CC[C@H]1C[C@@H](O)C2`, the “% Inhibition” value was -4% and the Z score was determined as 0.76.

As to `COCCNc1cc(-c2noc([C@@H]3CCCN3C3CCN(C)CC3)n2)ccn1`, the “% Inhibition” value turned out to be 31% and the Z score is on record as -3.52.

In the case of `COc1ccc(-c2cc(C)ccc2N2CCOC2=O)cc1F`, the “% Inhibition” value is -5% and the Z score turned out to be 0.92.

As to `CCN1CC[C@@]2(CCC1=O)CN(C(=O)Nc1ccc(F)c(F)c1)CCN2C`, the “% Inhibition” value is listed as -4% and the Z score is reported as 0.72.

With `CC(C)(CN)Cc1ccc(C(F)(F)F)cc1`, the “% Inhibition” value was found to be 2% and the Z score is -0.24.

In the case of `CCOc1cccc(CC(=O)NCc2ccc3c(c2)CCN3C(C)=O)c1OCC`, the “% Inhibition” value stood at 8% and the Z score is listed as -1.49.

As to `Cc1csc([C@H](C)NC(=O)N2CCN(c3cccs3)CC2)n1`, the “% Inhibition” value is 34% and the Z score was -3.8.

On to `O=C(NCc1cccc(C(F)(F)F)c1)[C@H]1CCCN(c2ncnc3nn(-c4ccc(F)cc4)cc23)C1`, for which the “% Inhibition” value is -13% and the Z score amounted to 1.16.

With `CCCn1ncc(CN2CCN(C(=O)c3ccccc3)CC2)c1C`, the “% Inhibition” value is listed as -9% and the Z score is reported as 1.69.

For `COCCc1noc(C2CCCCCC2)n1`, the “% Inhibition” value was -3% and the Z score came to 0.59.

For `Cn1c(=O)cc(N2CC(Cc3ccccc3C(F)(F)F)C2)[nH]c1=O`, the “% Inhibition” value came to 0% and the Z score came to 0.1.

Consider `CC1(CC(F)(F)F)CN(C(=O)[C@H]2CCc3nccn3C2)C1`, for which the “% Inhibition” value was found to be 24% and the Z score was -3.01.

As for `CCc1ncnc(N2CC(C)(C)[C@H]2c2ccncc2)c1F`, the “% Inhibition” value is -4% and the Z score is reported as 0.49.

`Cc1cc(C(=O)Nc2cccc(F)c2)cc2c1N(C)S(=O)(=O)c1ccccc1-2`: the “% Inhibition” value came out at 5% and the Z score was -0.58.

On to `O=C(Nc1cc(-c2cccc(Cl)c2)no1)C1CCN(c2ncnc3c2nc2n3CCCCC2)CC1`, for which the “% Inhibition” value is -13% and the Z score stood at 2.11.

Regarding `Cc1cc(CC(=O)Nc2cc(C3CCC3)nn2C)no1`, the “% Inhibition” value is recorded as -6% and the Z score is recorded as 0.71.

For `Cc1nc(C)c(C(=O)N2CC(Cc3nncn3CC3CC3)C2)s1`, the “% Inhibition” value is on record as 3% and the Z score was -0.4.

As for `Clc1ccc(-c2noc(-c3ccc(N4CCC5(CC4)OCCO5)nn3)n2)cc1`, the “% Inhibition” value amounted to 11% and the Z score was -1.91.

Turning to `Cc1c(O)cccc1C(=O)N1CCC[C@H](c2nccn2C(C)C)C1`, the “% Inhibition” value is given as -18% and the Z score is reported as 1.89.

As to `Cc1cc(C)n(C[C@H](C)NC2(Cc3ccccc3)CC2)n1`, the “% Inhibition” value was -6% and the Z score is 0.76.

Turning to `Cc1ccc(NC(=O)Cn2cc(S(=O)(=O)N3CCCCC3)ccc2=O)c(C)c1`, the “% Inhibition” value was -7% and the Z score came out at 1.38.

Regarding `CCNC(=O)N1CC(Oc2cccc(C(F)(F)F)n2)C1`, the “% Inhibition” value was -11% and the Z score stood at 2.03.

Turning to `CCCc1cc(N2CCC3(CC2)CNC(=O)c2ccccc2O3)n2ncnc2n1`, the “% Inhibition” value was determined as 17% and the Z score was -2.29.

Turning to `O=C(COc1ccc2ccccc2c1)Nc1cccc(S(=O)(=O)N2CCCC2)c1`, the “% Inhibition” value was -9% and the Z score is given as 1.7.

For the molecule `CCOC1CC(CO)(NC(=O)c2c(Cl)c3ccccc3n2C)C1(C)C` (stereo not drawn), the “% Inhibition” value amounted to 31% and the Z score is listed as -3.55.

For the molecule `Cc1cc(C)n(Cc2cc(C(=O)N(C)CCc3ccccn3)n[nH]2)n1`, the “% Inhibition” value came out at 15% and the Z score is given as -2.02.

With `Cc1cc(NCCc2cccs2)c2nncn2n1`, the “% Inhibition” value is -26% and the Z score is listed as 2.43.

Turning to `CCC(=O)N1CCC(NCc2cnc(C(C)(C)C)s2)C(CC)C1` (stereo not drawn), the “% Inhibition” value is on record as -7% and the Z score is reported as 0.82.

`COc1cc2nc(C)sc2cc1NC(=O)NCc1cccnc1`: the “% Inhibition” value is -8% and the Z score worked out at 1.53.

With `Cc1cc(NC(=O)NCCCOCC2CC2)n(Cc2ccccn2)n1`, the “% Inhibition” value is given as -3% and the Z score was found to be 0.27.
